# Laboratory results reported in the supplement of paper PMC4604168 (melanoma cell lines).
# The other results are listed elsewhere or left out. Most values come without repeats; read them as rough.
# How the values were obtained:
# Test in all cases: cell count relative to DMSO control; melanoma cells; higher = more viable cells
# Details in all cases: library dose: standard library concentration; 72 h
# SkMel28 = system: SkMel28
# SkMel2 = system: SkMel2
# SkMel30 = system: SkMel30
# SkMel5 = system: SkMel5
# UACC257 = system: UACC257
# UACC62 = system: UACC62
# WM115 = system: WM115
# WM1716 = system: WM1716
# WM1745 = system: WM1745
# WM3526 = system: WM3526
# 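Further: cells treated in 1,536-well plates, then fixed and DAPI-stained, with nuclei counted from automated high-throughput microscope images.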
Compound,cell count (SkMel28) [%],cell count (SkMel2) [%],cell count (SkMel30) [%],cell count (SkMel5) [%],cell count (UACC257) [%],cell count (UACC62) [%],cell count (WM115) [%],cell count (WM1716) [%],cell count (WM1745) [%],cell count (WM3526) [%]
"O=C(Nc1cc(C(F)(F)F)cc(C(F)(F)F)c1)c1cc(Cl)ccc1O + NC1(c2ccc(-c3nc4ccn5c(=O)[nH]nc5c4cc3-c3ccccc3)cc2)CCC1 [MK2206] (first compound 0.08 µM, partner dose 2 µM)",57.8,74.7,86.3,61.6,91.9,62.3,68.2,81.9,81.8,55.1
"O=C(Nc1cc(C(F)(F)F)cc(C(F)(F)F)c1)c1cc(Cl)ccc1O + O=C(O)c1ccc2c(c1)nc(Nc1cccc(Cl)c1)c1ccncc12 [CX4945] (first compound 0.08 µM, partner dose 2 µM)",141,92.7,111,135,116,82.8,135,112,87.2,113
"O=C(O)c1ccc2c(c1)nc(Nc1cccc(Cl)c1)c1ccncc12 + Cn1cncc1[C@@](N)(c1ccc(Cl)cc1)c1ccc2c(c1)c(-c1cccc(Cl)c1)cc(=O)n2C [tipifarnib] (first compound 2 µM, partner dose 0.05 µM)",36.1,57.1,65.6,62.8,74.8,72.9,68.9,77,74.7,55.8
"O=C(Nc1ccccc1)c1cc([N+](=O)[O-])ccc1Cl + O=c1cc(-c2cccc3c2Sc2ccccc2S3)oc(N2CCOCC2)c1 [KU55933] (first compound 10 µM, partner dose 5 µM)",64.8,88.9,117,80.8,76.9,82.3,79.5,6.57,73.4,77.5
"Cn1nnc2c(C(N)=O)ncn2c1=O [temozolomide] + N#Cc1c(O)c2c(-c3ccc(-c4ccccc4O)cc3)csc2[nH]c1=O [A769662] (first compound 10 µM, partner dose 10 µM)",30.3,116,65.7,101,112,56.4,104,60.2,95.7,107
"O=C(O)c1ccc2c(c1)nc(Nc1cccc(Cl)c1)c1ccncc12 + Nc1cccc2c1CN(C1CCC(=O)NC1=O)C2=O [lenalidomide] (first compound 2 µM, partner dose 5 µM)",57,79.5,68.5,71,85.1,68.2,77.4,97.6,64.8,74.8
"O=C(O)[C@@H]1[O][Sb](=[O])([O][Sb]2(=[O])[O][C@H]([C@H](O)CO)[C@H](O)[C@H](C(=O)O)[O]2)[O][C@H]([C@H](O)CO)[C@@H]1O (stereo not given in full) [stibogluconate] + NCC(=O)Nc1ccc(-n2nc(C(F)(F)F)cc2-c2ccc3c(ccc4ccccc43)c2)cc1 [OSU03012] (first compound 10 µM, partner dose 5 µM)",24.8,37.7,33.6,65.6,75.6,61.6,81.2,81.4,100,39.5
"O=C(Nc1cc(C(F)(F)F)cc(C(F)(F)F)c1)c1cc(Cl)ccc1O + OCc1c[nH]c2ccccc12 [Indole-3-carbinol] (first compound 0.08 µM, partner dose 4 µM)",89.4,90.4,82.9,82.6,86.1,75.9,87,82.3,126,87.1
"Cc1cc(N2CCOCC2)cc2[nH]c(-c3c(NC[C@@H](O)c4cccc(Cl)c4)cc[nH]c3=O)nc12 + CN(C)S(=O)(=O)c1ccc2c(c1)/C(=C/c1cc3c([nH]1)CCCC3)C(=O)N2 [SU6656] (first compound 1 µM, partner dose 2 µM)",37.5,73.1,75.5,46.5,77.8,92.5,44.1,50.6,40.7,64.8
"O=C(O)c1ccc2c(c1)nc(Nc1cccc(Cl)c1)c1ccncc12 + C=C(c1ccc(C(=O)O)cc1)c1cc2c(cc1C)C(C)(C)CCC2(C)C [Bexarotene] (first compound 2 µM, partner dose 10 µM)",58.7,66.9,74.2,77.9,85.1,57.7,70.8,91.2,54.4,66.1
"O=C(Nc1cc(C(F)(F)F)cc(C(F)(F)F)c1)c1cc(Cl)ccc1O + Clc1ccc(Nc2nnc(Cc3ccncc3)c3ccccc23)cc1 [vatalanib] (first compound 0.08 µM, partner dose 10 µM)",71.4,73.1,82.8,63.2,76.3,106,69.7,94.6,22.8,71.9
"Cc1cc(N2CCOCC2)cc2[nH]c(-c3c(NC[C@@H](O)c4cccc(Cl)c4)cc[nH]c3=O)nc12 + OCCn1cc(-c2cnc3nnn(Cc4ccc5ncccc5c4)c3n2)cn1 [PF04217903] (first compound 1 µM, partner dose 5 µM)",114,77.3,82.5,76.7,92.9,101,67.5,87.9,70.9,70.8
"O=C(O)c1ccc2c(c1)nc(Nc1cccc(Cl)c1)c1ccncc12 + NC(=O)Nc1cc(-c2cccc(F)c2)sc1C(=O)N[C@H]1CCCNC1 [AZD7762] (first compound 2 µM, partner dose 0.1 µM)",38.6,99,84,77.9,80,83.7,61.4,55.9,77.6,39
"Cc1cc(N2CCOCC2)cc2[nH]c(-c3c(NC[C@@H](O)c4cccc(Cl)c4)cc[nH]c3=O)nc12 + COc1ccc(COc2ccc(Cc3cnc(N)nc3N)cc2OC)cc1 [GW2580] (first compound 1 µM, partner dose 5 µM)",102,91.3,82.3,63,77.5,103,96.8,136,61.8,76.3
"Cn1nnc2c(C(N)=O)ncn2c1=O [temozolomide] + C=CCn1c(=O)c2cnc(Nc3ccc(N4CCN(C)CC4)cc3)nc2n1-c1cccc(C(C)(C)O)n1 [MK1775] (first compound 10 µM, partner dose 0.1 µM)",27.5,77.8,48.8,45.2,87.7,59.5,42.1,48,44.3,60.9
"O=C(O)[C@@H]1[O][Sb](=[O])([O][Sb]2(=[O])[O][C@H]([C@H](O)CO)[C@H](O)[C@H](C(=O)O)[O]2)[O][C@H]([C@H](O)CO)[C@@H]1O (stereo not given in full) [stibogluconate] + C[C@@H]1CCN(C(=O)CC#N)C[C@@H]1N(C)c1ncnc2[nH]ccc12 [CP690550] (first compound 10 µM, partner dose 5 µM)",155,96.8,101,111,105,89.3,99.5,104,110,99.4
"Cn1nnc2c(C(N)=O)ncn2c1=O [temozolomide] + COc1cc(N2CCC(N3CCN(C)CC3)CC2)ccc1Nc1ncc(Cl)c(Nc2ccccc2S(=O)(=O)C(C)C)n1 [NVP-TAE684] (first compound 10 µM, partner dose 0.4 µM)",47.3,77.3,82,67.6,92.4,69.6,67.7,52.9,62.2,81
"O=C(O)[C@@H]1[O][Sb](=[O])([O][Sb]2(=[O])[O][C@H]([C@H](O)CO)[C@H](O)[C@H](C(=O)O)[O]2)[O][C@H]([C@H](O)CO)[C@@H]1O (stereo not given in full) [stibogluconate] + OCCn1cc(-c2cnc3nnn(Cc4ccc5ncccc5c4)c3n2)cn1 [PF04217903] (first compound 10 µM, partner dose 5 µM)",87.7,84.2,80.2,66.5,92.5,89.3,96.9,74.8,65.3,74.2
"O=C(Nc1cc(C(F)(F)F)cc(C(F)(F)F)c1)c1cc(Cl)ccc1O + Cn1nnc2c(C(N)=O)ncn2c1=O [temozolomide] (first compound 0.08 µM, partner dose 10 µM)",36.4,104,66.2,87.4,81.3,49.3,85.3,67,95.8,82.8
"O=C(Nc1cc(C(F)(F)F)cc(C(F)(F)F)c1)c1cc(Cl)ccc1O + Cc1cn(-c2cc(NC(=O)c3ccc(C)c(Nc4nccc(-c5cccnc5)n4)c3)cc(C(F)(F)F)c2)cn1 [nilotinib] (first compound 0.08 µM, partner dose 1 µM)",71.7,90.6,85.6,74.9,116,73.6,98.5,106,71.9,77.9
"O=C(O)[C@@H]1[O][Sb](=[O])([O][Sb]2(=[O])[O][C@H]([C@H](O)CO)[C@H](O)[C@H](C(=O)O)[O]2)[O][C@H]([C@H](O)CO)[C@@H]1O (stereo not given in full) [stibogluconate] + Nc1ncn([C@H]2C[C@H](O)[C@@H](CO)O2)c(=O)n1 [decitabine] (first compound 10 µM, partner dose 0.5 µM)",115,106,125,80.8,107,76,64.8,82.5,78.4,108
"Cc1cc(N2CCOCC2)cc2[nH]c(-c3c(NC[C@@H](O)c4cccc(Cl)c4)cc[nH]c3=O)nc12 + O=C(Nc1ccccc1)c1cc([N+](=O)[O-])ccc1Cl [GW9662] (first compound 1 µM, partner dose 10 µM)",66.8,83.7,68.5,69.9,83.2,108,77.6,104,58.3,85.7
